Test in all cases: Primary Screen for Target Class Profiling of Small Molecule Inhibitors of Methyltransferases
For experiment [1], the target named is Glycine N-methyltransferase (Homo sapiens) (UniProt Q14749). Particulars: purified enzyme, MTase-Glo SAH luminescence; measured here: GNMT inhibition; at 40 µM; stronger effect = lower value. Put shortly: (§1)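 Each enzyme was reacted with SAM and its substrate, with compounds tested once at 40 uM; SAH formed was read by MTase-Glo luminescence.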
Experiment [2] addresses Guanidinoacetate N-methyltransferase (Homo sapiens) (UniProt Q14353). The conditions noted are these: purified enzyme, MTase-Glo SAH luminescence; measured here: GAMT inhibition; at 40 µM; stronger effect = lower value. The essentials:
as §1

The target in experiment [3] is Histamine N-methyltransferase (Homo sapiens) (UniProt P50135). The conditions noted are these: purified enzyme, MTase-Glo SAH luminescence; measured here: HNMT inhibition; at 40 µM; stronger effect = lower value. Put shortly: as §1
The target of experiment [4] is Nicotinamide N-methyltransferase (Homo sapiens) (UniProt P40261). The conditions noted are these: purified enzyme, MTase-Glo SAH luminescence; measured here: NNMT inhibition; at 40 µM; stronger effect = lower value. The essentials: as §1
The target of experiment [5] is Phenylethanolamine N-methyltransferase (Homo sapiens) (UniProt P11086). Particulars: purified enzyme, MTase-Glo SAH luminescence; measured here: PNMT inhibition; at 40 µM; stronger effect = lower value. The essentials:
as §1

The list shows a part of the results. The main result of the screen is listed elsewhere. These columns were measured beside it and carry no call.
% is set by controls: 0 for no effect and ±100 for the full control effect.

Regarding `CNS(=O)(=O)c1ccccc1Nc1nc(Nc2ccc(N3CCN(C)CC3)cc2OC)ncc1Br`, the activity change, negative = inhibition is -26.8% in experiment [1]; 12.8% in experiment [2]; -47.4% in experiment [3]; -18.4% in experiment [4]; -9.42% in experiment [5].

As to `CC1(C)CCCC2(C)C1CC(=O)C13CC(CCC12)C(O)(CO)C3` (stereo not given), the activity change, negative = inhibition in experiment [1] is -4.45%; in experiment [2], -2.63%; in experiment [3], -0.544%; in experiment [4], -15%; in experiment [5] it was -0.089%.

Turning to `CCCN1C(=O)c2c(C(=O)NCc3cccc(F)c3)ncn2CC1(C)C(=O)NCc1ccc(F)cc1` (stereo not given), the activity change, negative = inhibition is -1.32% in experiment [1]; 1.96% in experiment [2]; -1.78% in experiment [3]; -0.611% in experiment [4]; 2.3% in experiment [5].

On to `Cc1cnc(CCNS(=O)(=O)c2cccc(F)c2)n1C(C)C`, for which the activity change, negative = inhibition was -5.76% in experiment [1]; -4.84% in experiment [2]; -21.1% in experiment [3]; -9.91% in experiment [4]; -15.8% in experiment [5].

Take `CCCCOc1ccccc1-c1cc2n(n1)CC(C)(C(=O)NC1CCCCCC1)N(CC)C2=O` (stereo not given): the activity change, negative = inhibition in experiment [1] was 1.45%; in experiment [2], 0.734%; in experiment [3] it was 3.01%; in experiment [4], 6.02%; in experiment [5], 0.37%.

For `COc1ccc(CNc2nc3c(S(=O)(=O)c4ccccc4)nnn3c3ccc(Cl)cc23)cc1`, the activity change, negative = inhibition in experiment [1] was -9.96%; in experiment [2], 3.33%; in experiment [3], -2.49%; in experiment [4], -0.02%; in experiment [5], -4.4%.

With `O=c1[nH]c2ccc(S(=O)(=O)NCCCc3ccccc3)cc2[nH]1`, the activity change, negative = inhibition in experiment [1] is 12.3%; in experiment [2], 0%; in experiment [3] it was 10.9%; in experiment [4], -1.31%; in experiment [5], -1.38%.

As for `COc1ccc(C(C)NC(=O)c2noc(-c3ccc(F)cc3)n2)cc1OC` (stereo not given), the activity change, negative = inhibition was -9.66% in experiment [1]; 1.27% in experiment [2]; 0.922% in experiment [3]; -4.92% in experiment [4]; 0.954% in experiment [5].

Regarding `CNC(=O)N1CCCC1c1nc(C2CN(C(=O)c3cnccn3)C2)no1` (stereo not given), the activity change, negative = inhibition is -3.04% in experiment [1]; 2.47% in experiment [2]; 2.56% in experiment [3]; -4.95% in experiment [4]; -12.6% in experiment [5].

Turning to `COc1ccc(F)cc1-c1cccc(C(=O)NCC(=O)NCc2cccs2)c1`, the activity change, negative = inhibition is -7.44% in experiment [1]; -2.06% in experiment [2]; -3.48% in experiment [3]; -8.89% in experiment [4]; -18.3% in experiment [5].

Regarding `COC(=O)C[C@H]1C(C)(C)[C@H](OC(=O)c2ccccc2)C2CC3=C4CC(=O)O[C@@H](c5ccoc5)[C@]4(C)CCC3[C@@]1(C)C2=O` (stereo not given in full), the activity change, negative = inhibition in experiment [1] is -1.15%; in experiment [2], -0.204%; in experiment [3], 5.2%; in experiment [4], -16.5%; in experiment [5] it was -8.76%.

As for `CN1CCN(CCCN2c3ccccc3Sc3ccc(Cl)cc32)CC1`, the activity change, negative = inhibition in experiment [1] was -11.9%; in experiment [2], 2.17%; in experiment [3] it was -5.74%; in experiment [4], -28.1%; in experiment [5], 0.698%.

For `CCn1nc(CNC(=O)Cc2cccc(Cl)c2)c2ccccc21`, the activity change, negative = inhibition was 2.56% in experiment [1]; 1.94% in experiment [2]; 0.126% in experiment [3]; -1.46% in experiment [4]; 2.84% in experiment [5].

Regarding `O=C(c1ccco1)N1CCC(N2CC3(CCCC3)C2c2ccccc2)CC1` (stereo not given), the activity change, negative = inhibition is -2.51% in experiment [1]; 0.333% in experiment [2]; -10.4% in experiment [3]; -9.24% in experiment [4]; -2.12% in experiment [5].

Turning to `Cc1[nH]c2ccccc2c1CCNC(=O)c1ccccc1F`, the activity change, negative = inhibition in experiment [1] was -0.669%; in experiment [2], 8.15%; in experiment [3] it was 10.5%; in experiment [4], -15.8%; in experiment [5], 2.77%.

Take `Cc1ccccc1OCc1nc(C2CN(C(=O)c3nccc4ccccc34)C2)no1`: the activity change, negative = inhibition was -7.2% in experiment [1]; -1.29% in experiment [2]; -0.61% in experiment [3]; -8.52% in experiment [4]; 0.388% in experiment [5].

For `COCCn1c(CO)nnc1C1CC(NC(=O)c2cc(C)n3nc(C)cc3n2)C1` (stereo not given), the activity change, negative = inhibition in experiment [1] was -1.37%; in experiment [2], 5.77%; in experiment [3], 0.789%; in experiment [4], 0.969%; in experiment [5], -6.53%.
